Experimental findings from article PMC4336329 (PLoS ONE, 2015) are described below.

The campaign covered roughly 310,000 compounds. About 2,200 (0.71%) showed an effect of 50% or more. Effects have a minus sign here. Some of the results follow.

The target of this assay is human ether-à-go-go-related gene (hERG) potassium channel (human, UniProt Q12809). Description: primary screen, population patch clamp on CHO cells stably expressing hERG.
Sequence of human ether-à-go-go-related gene (hERG) potassium channel (Q12809 whole entry, looked up): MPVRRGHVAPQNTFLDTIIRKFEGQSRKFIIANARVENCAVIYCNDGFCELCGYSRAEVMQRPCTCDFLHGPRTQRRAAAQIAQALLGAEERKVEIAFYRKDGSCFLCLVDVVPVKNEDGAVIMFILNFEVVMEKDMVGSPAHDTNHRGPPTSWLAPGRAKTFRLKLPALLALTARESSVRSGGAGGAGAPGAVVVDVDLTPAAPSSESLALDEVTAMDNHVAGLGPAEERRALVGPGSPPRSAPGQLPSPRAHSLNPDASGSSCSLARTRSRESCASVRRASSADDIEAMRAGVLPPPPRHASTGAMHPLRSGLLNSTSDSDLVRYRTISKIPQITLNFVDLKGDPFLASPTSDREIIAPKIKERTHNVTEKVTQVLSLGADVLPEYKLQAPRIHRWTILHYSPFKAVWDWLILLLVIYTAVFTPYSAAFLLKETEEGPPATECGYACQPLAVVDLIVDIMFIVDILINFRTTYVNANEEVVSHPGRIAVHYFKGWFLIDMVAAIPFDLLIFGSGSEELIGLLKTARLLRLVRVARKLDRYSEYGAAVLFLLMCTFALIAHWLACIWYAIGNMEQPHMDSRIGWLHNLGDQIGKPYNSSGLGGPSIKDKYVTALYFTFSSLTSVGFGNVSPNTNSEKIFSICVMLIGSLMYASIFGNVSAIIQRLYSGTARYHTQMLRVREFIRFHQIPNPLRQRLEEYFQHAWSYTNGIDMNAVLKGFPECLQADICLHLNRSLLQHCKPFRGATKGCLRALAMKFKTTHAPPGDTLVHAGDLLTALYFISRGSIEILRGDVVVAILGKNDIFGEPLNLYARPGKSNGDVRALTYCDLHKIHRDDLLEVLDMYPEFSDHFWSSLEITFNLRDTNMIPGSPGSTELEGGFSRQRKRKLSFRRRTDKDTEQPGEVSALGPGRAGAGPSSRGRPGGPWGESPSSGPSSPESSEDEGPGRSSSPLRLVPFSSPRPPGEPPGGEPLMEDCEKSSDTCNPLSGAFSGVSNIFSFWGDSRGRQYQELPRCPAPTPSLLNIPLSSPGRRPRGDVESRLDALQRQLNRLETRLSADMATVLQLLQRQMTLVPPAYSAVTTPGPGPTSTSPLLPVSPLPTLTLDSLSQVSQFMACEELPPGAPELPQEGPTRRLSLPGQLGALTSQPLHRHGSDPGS
On to `CCCN1Cc2cccc(C(=O)Nc3cc(OC)cc(OC)c3)c2C1=O`, for which the “hERG current change (%, negative = inhibition) at 1uM” value was determined as 1.76%. With `CCOc1nc2c(c(=O)n(C)c(=O)n2C)n1Cc1ccccc1Cl`, the “hERG current change (%, negative = inhibition) at 1uM” value is recorded as -1.41%. As to `COCc1ccc(C(=O)NC2CCCc3c2cnn3-c2ccc(C)c(C)c2)o1` (centres unmarked), the “hERG current change (%, negative = inhibition) at 1uM” value is on record as 0.936%. With `CCOc1ccc(NC(=O)COC(=O)c2cccnc2)cc1`, the “hERG current change (%, negative = inhibition) at 1uM” value came to 14.5%. As for `CC(=O)c1cn(S(=O)(=O)c2ccccc2)c2ccccc12`, the figure is 7.31%; as for `Cc1cc(OCC(=O)Nc2ccc3c(c2)OCCO3)ccc1Cl`, 11.9%; as for `N/C(=N\OC(=O)Cc1ccc(Cl)cc1)c1ccncc1`, 4.51%. For `c1ccc(-c2nc3nonc3c3nc4ccccc4n23)cc1`, the “hERG current change (%, negative = inhibition) at 1uM” value was -1.03%. Take `O=C(OCC(=O)c1c[nH]c2ccccc12)c1cc(Br)ccc1O`: the “hERG current change (%, negative = inhibition) at 1uM” value was found to be 8.79%.

With `Cc1cccc(NC(=O)c2cccc(S(=O)(=O)N(C)c3ccccc3)c2)n1`, the “hERG current change (%, negative = inhibition) at 1uM” value was -0.556%.

As to `CSc1ccc(CNc2ncc(-c3cccc([N+](=O)[O-])c3)n2C)cc1.O=C(O)C(=O)O`, the “hERG current change (%, negative = inhibition) at 1uM” value is -26.5%. As for `COc1ccc2oc(C(=O)OCC(=O)NC3CCCCC3)c(C)c2c1`, the figure is 0.968%. In the case of `COc1ccccc1C(=O)NC(=O)CSc1nncn1C`, the “hERG current change (%, negative = inhibition) at 1uM” value was found to be 18.2%. As for `O=C(CCC1CCCC1)N1CCN(S(=O)(=O)c2ccc(Br)cc2)CC1`, the figure is 9.73%. Regarding `CC(C)CC(C(=O)NCC1CCCO1)N(C(=O)Cn1nnc(-c2ccc(F)cc2)n1)c1cccc(C(F)(F)F)c1` (centres unmarked), the “hERG current change (%, negative = inhibition) at 1uM” value was 11.7%. As for `CC(C)(C)OC(=O)N1CCC2(CC1)Oc1ccc(F)cc1C(=O)C21CC(c2cccnc2)=NO1` (centres unmarked), the figure is 15.8%; as for `CN(Cc1nc(-c2cnccn2)no1)Cc1cccc2ccccc12`, 7.66%.

`COc1ccc(-c2[nH]ncc2/C=N/NC(=O)c2ccc(Br)cc2)c(OC)c1`: the “hERG current change (%, negative = inhibition) at 1uM” value came out at 4.05%. Turning to `CCCc1nc(SCC(=O)N2CCCC2)c2c(=O)n(C)c(=O)n(C)c2n1`, the “hERG current change (%, negative = inhibition) at 1uM” value is 2.37%. As for `COc1ccc(C2N(C(=O)CN3CCCC3)CCCN2S(=O)(=O)c2ccccc2)cc1` (centres unmarked), the figure is 4.43%. Turning to `COc1ccc(C(=O)Nc2ccccc2C(=O)N/N=C/c2cccc3ccccc23)cc1`, the “hERG current change (%, negative = inhibition) at 1uM” value amounted to 21.1%. With `COc1cc(/C=C/C(=O)O)cc(S(=O)(=O)NCCO)c1OC`, the “hERG current change (%, negative = inhibition) at 1uM” value turned out to be 5.69%. Turning to `COC(=O)c1ccc(NC(=O)CCNS(=O)(=O)c2cccc3nonc23)cc1`, the “hERG current change (%, negative = inhibition) at 1uM” value amounted to 8.69%. For `O=C1CSC(=S)N1N=C1CCCCCC1`, the “hERG current change (%, negative = inhibition) at 1uM” value is 8.32%.

In the case of `O=C(O)c1ccc(NC(=O)c2cccc(S(=O)(=O)Nc3ccc(C(=O)O)cc3)c2)cc1`, the “hERG current change (%, negative = inhibition) at 1uM” value was found to be 20.4%.

In the case of `CCOC(=O)/C=c1\s/c(=C(\C#N)C(=O)OCC)n(-c2ccccc2)c1=O`, the “hERG current change (%, negative = inhibition) at 1uM” value was 4.49%. As to `CC(C)N(Cc1nc(-c2ccccc2)no1)C(=O)c1ccc(Br)o1`, the “hERG current change (%, negative = inhibition) at 1uM” value came to 13.9%. For the compound `CCC(Sc1ncccc1C(=O)Oc1cccc([N+](=O)[O-])c1)C(=O)Nc1ccccc1OC` (centres unmarked), the “hERG current change (%, negative = inhibition) at 1uM” value is 7.33%. As to `CCOC(=O)CC1C(=O)NCCN1C(=S)Nc1ccccc1` (centres unmarked), the “hERG current change (%, negative = inhibition) at 1uM” value is 15.4%.

`CC(C)CNS(=O)(=O)c1cc2c3c(c1)CCC(=O)N3CCC2`: the “hERG current change (%, negative = inhibition) at 1uM” value is 3.9%. Consider `Cc1ccc(C(=O)C(NC(=O)c2ccco2)Nc2sc3c(c2C(N)=O)CCCC3)cc1` (centres unmarked), for which the “hERG current change (%, negative = inhibition) at 1uM” value is 15.9%. In the case of `COCC(COS(N)(=O)=O)Cc1ccccc1` (centres unmarked) it was 7.86%; in that of `CN1CCN(C(=O)CN(Cc2ccccc2)S(C)(=O)=O)CC1`, 18.4%. Take `O=C(COc1ccc(Cl)cc1)Nc1cc2c3c(c1)CC(=O)N3CCC2`: the “hERG current change (%, negative = inhibition) at 1uM” value is listed as -19.5%. In the case of `CSc1ccc(S(=O)(=O)NCC(=O)OCC(=O)N2CC(C)CC(C)C2)cc1[N+](=O)[O-]` (centres unmarked), the “hERG current change (%, negative = inhibition) at 1uM” value is given as 12.5%. In the case of `O=C(NCCCN1CCOCC1)c1ccc2c(=O)n(Cc3ccccc3)c(=S)[nH]c2c1`, the “hERG current change (%, negative = inhibition) at 1uM” value worked out at 9.4%.

Turning to `O=[N+]([O-])c1ccccc1CNc1ccc(F)c(Cl)c1`, the “hERG current change (%, negative = inhibition) at 1uM” value turned out to be 6.09%. For the compound `O=C(Cn1nc(Cc2cccnc2)c2ccccc2c1=O)N1CCC2(CC1)OCCO2`, the “hERG current change (%, negative = inhibition) at 1uM” value was found to be 0.907%. Turning to `O=C(NCc1ccco1)Oc1ccccc1`, the “hERG current change (%, negative = inhibition) at 1uM” value was determined as 8.55%. As for `Cc1ccc2[nH]c(=O)c(Cc3ccccc3)c(O)c2c1`, the figure is 11.8%; as for `Cc1ccc(Nc2cc(C)c3c(O)cccc3n2)cc1C.Cl`, 15%.

Take `O=C(NC12CC3CC(CC(C3)C1)C2)c1cc(F)c(F)cc1Cl`: the “hERG current change (%, negative = inhibition) at 1uM” value is listed as 13.2%. In the case of `Cc1ccc(S(=O)(=O)NC(C)(C)CSc2nnc(N)s2)cc1` it was 3.66%; in that of `Cc1c(C(C)(C)O)[nH]c2ccc(C#N)cc12`, 18.1%.
